Data on 79 compounds can be found in PMC12040169 (PLOS Biology, 2025).

The other results are listed elsewhere or left out.

The assay relates to T1, C. trachomatis L2/434/Bu expressing GFP (CTL2-GFP).
T1 construct: L2/434/Bu GFP intracellular growth in HeLa cells
Set-up: species or system HeLa; C. trachomatis total inclusion area by high-content imaging, normalised to DMSO. The note with it: total inclusion area; 28.5 h, 10 µM; inhibitor. Summed up: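 Host cell viability was gauged from Hoechst-stained nuclei counts, while chlamydial growth was taken from total inclusion area and inclusion number per well. Cells were fixed and imaged by high-content microscopy once bulk GFP and resorufin fluorescence had been measured.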
Regarding `O=[N+]([O-])c1ccc(-c2nc(-c3ccccc3)c(-c3ccc4oc5ccc(-c6[nH]c(-c7ccc([N+](=O)[O-])cc7)nc6-c6ccccc6)cc5c4c3)[nH]2)cc1` [CBK261434], the “% of control remaining” value stood at 89.1529.

With `COC(=O)[C@H]1CN(C(=O)c2ccncc2)C[C@@H]1c1ccc(F)cc1` [CBK283509], the “% of control remaining” value was determined as 80.9151. Regarding `O=c1cc2oc3cc(O)c(O)cc3c(-c3ccc(OCc4cccc([N+](=O)[O-])c4)cc3)c-2cc1O` [CBK265408], the “% of control remaining” value is 112.41. Consider `Cc1nc2c(c(=O)[nH]1)CCN(C(=O)c1oc3ccccc3c1C)C2` [CBK283752], for which the “% of control remaining” value amounted to 94.4936.

On to `CCOc1cc(S(=O)(=O)NCc2ccccn2)ccc1Cl` [CBK266817], for which the “% of control remaining” value was 105.645.

Take `COc1ccc(NC(=S)NCCN2CCC(C)CC2)cc1Cl` [CBK267268]: the “% of control remaining” value was 72.4201. Regarding `COc1cc(CNc2ccc(N3CCOCC3)c(Cl)c2)ccc1OCc1ccccc1F` [CBK074392], the “% of control remaining” value is given as 81.4098. The result for `Sc1nnc(C2CCCC2)n1CC1CCCO1` (stereo not shown) [CBK288413] reads 78.8082; that for `O=C(CCc1ccc(Cl)cc1)NCCn1cncn1` [CBK283184], 87.9874; that for `CCOc1ccccc1N1CCN(C(=O)c2cc(-c3ccccc3C)nc3ccccc23)CC1` [CBK091950], 74.3226. Regarding `Cc1ccsc1CN1CCOCC1` [CBK026429], the “% of control remaining” value is listed as 112.219. Then `CCOc1cccc(-c2ccc(Nc3ccc(Oc4ccccc4)cc3)nc2)c1` [CBK037679], with 74.2508; and `CCN(Cc1cnn(C)c1)[C@H]1CCO[C@@H](c2ccccc2-c2ccc(OC)cc2)C1` [CBK285854], with 98.9184. `O=C(NCCc1c[nH]c2ccc(Cl)cc12)c1c(F)ccc(Cl)c1F` [CBK159756]: the “% of control remaining” value stood at 4.619.

In the case of `CC1(C)CCCN1C1=NC(=O)C(c2ccccc2)O1` (stereo not shown) [CBK023070], the “% of control remaining” value is 109.056. For `CSc1nnnn1-c1cccc(NC(=O)N2CCCN(C)CC2)c1` [CBK304180], the “% of control remaining” value is 101.31. On to `CC1CC(C)CN(CCCNC(=O)c2cc(C(C)C)nn2C)C1` (stereo not shown) [CBK282665], for which the “% of control remaining” value was determined as 102.079. `Cc1noc(C)c1CN1CCC(Oc2ccccc2)CC1` [CBK305811]: the “% of control remaining” value came out at 50.7764. Regarding `CC(C)(C)OC(=O)N1CCN(Cc2ccn(Cc3ccc(S(C)(=O)=O)cc3)c2)CC1` [CBK144936], the “% of control remaining” value is recorded as 69.0433. The result for `CC1CCN(C(=O)COC(=O)c2cnc(-c3ccncc3)s2)CC1` [CBK306255] reads 96.2372; that for `O=C(COc1cccnc1)N1CCc2ccccc21` [CBK200268], 93.6358. For `CCN(Cc1ccncc1)S(=O)(=O)c1ccc(Cl)c(Cl)c1` [CBK043818], the “% of control remaining” value turned out to be 83.846. As to `CS(=O)(=O)c1ccc(C(=O)Nc2nc(-c3ccccc3)cs2)cc1` [CBK287716], the “% of control remaining” value came to 48.5433.

Take `NC(=O)c1ccc(-c2ccc(/C=C3/C(=O)NN(c4ccc(F)cc4)C3=O)o2)cc1` [CBK098345]: the “% of control remaining” value is 97.7885. The result for `COC(=O)[C@H]1CN(C(=O)c2cscn2)C[C@@H]1c1ccc(F)cc1` [CBK283785] reads 103.67. Take `Cc1cccc(Cl)c1S(=O)(=O)c1ccc2ccnc(N3CCNCC3)c2c1` [CBK036394C]: the “% of control remaining” value is given as 80.0828. The result for `COc1ccc(C(C)C)cc1-c1cncc(NCC(C)(C)CO)n1` [CBK065206] reads 104.291. For the compound `CS(=O)(=O)c1ccc(CN2CC[C@H](c3nc4ncccc4[nH]3)C2)cc1` [CBK289385], the “% of control remaining” value stood at 107.447. In the case of `Cn1cc(NC(=O)CCn2c(C(F)(F)F)cc3cccnc32)cn1` [CBK284866], the “% of control remaining” value stood at 75.5784. In the case of `CC(C)Cn1cnc(S(=O)(=O)N2CCC(Cc3ccccc3)CC2)c1` [CBK306273], the “% of control remaining” value amounted to 39.1494. Then `CC1CCc2c(sc(Nc3nc4c(F)cccc4s3)c2C(N)=O)C1` (stereo not shown) [CBK287477], with 56.6996.

`Cc1ccc(-c2ccc(/C=N\NC(=O)C3C(=O)NCC3c3ccccc3)o2)cc1Cl` (stereo not shown) [CBK262808]: the “% of control remaining” value is reported as 90.2265. Then `Cc1[nH]c2ccccc2c1C(=O)CSc1nnc(N)s1` [CBK266328], with 123.736. Regarding `OCCNc1nccnc1-c1ccc2c(c1)OCO2` [CBK088984], the “% of control remaining” value turned out to be 101.374. On to `Cc1nn(-c2ccccc2)c2sc(C(=O)N3CCN(C(=O)c4ccccc4)CC3)cc12` [CBK297554], for which the “% of control remaining” value was 97.0834. In the case of `CCSc1ccc(-c2cc(N(C)c3cccc(C)c3)n3nccc3n2)cc1` [CBK037115], the “% of control remaining” value came to 92.3507. For `CNS(=O)(=O)c1ccc(NC(=O)Nc2ccc([N+](=O)[O-])cc2OC)cc1` [CBK266939], the “% of control remaining” value is 105.577.

On to `COc1ccc(C(=O)Nc2nc(-c3ccc4c(c3)OCCO4)cs2)cc1OC` [CBK287588], for which the “% of control remaining” value came to 103.12. The result for `COC(=O)/C=C/c1cn(C2CC(O)C(CO)O2)c(=O)[nH]c1=O` (stereo not shown) [CBK201244] reads 156.009; that for `CN(C)CCN(C)c1nc(-c2ccccc2F)cn2ccnc12` [CBK037406], 63.7653; that for `O=C(O)c1ccc(NCc2ccccc2OCc2ccc(F)cc2)cc1` [CBK266487], 131.182. As for `Cc1c(NC(=O)CSc2nnc(-c3cccc([N+](=O)[O-])c3)n2C)c(=O)n(-c2ccccc2)n1C` [CBK266757], the “% of control remaining” value is given as 112.456. In the case of `O=C(O)CCCN1C(=O)c2ccccc2C1=O` [CBK056635], the “% of control remaining” value is reported as 67.7233. With `CN(C)C(=O)c1ccc(Cn2ccnc(N3CCC(Sc4ccccc4)CC3)c2=O)cc1` [CBK153651], the “% of control remaining” value worked out at 107.693.

For the compound `Cc1cc2c(o1)CCc1sc(N(C)C(=O)C3CCCO3)nc1-2` (stereo not shown) [CBK281932], the “% of control remaining” value was determined as 102.149. The result for `Cn1c(=O)n(C)c2cc(CNC3(c4ccccc4)CC3)ccc21` [CBK282746] reads 109.253; that for `CN1CCN(CCCNC(=O)N2CCN(c3cc(C(F)(F)F)ccn3)CC2)CC1` [CBK156431], 83.3656. For the compound `COc1ccc(S(=O)(=O)N(C)CC(=O)O)c2ccccc12` [CBK268459], the “% of control remaining” value came to 75.0682. On to `CCn1c(C2CC(=O)N(c3ccc(C)cc3C)C2)nc2ccccc21` (stereo not shown) [CBK287505], for which the “% of control remaining” value is 99.6819. For `Cc1cc(OC(C)C(=O)Nn2cnnc2)ccc1Cl` (stereo not shown) [CBK269690], the “% of control remaining” value was 93.2438. Turning to `O=C(NC(c1ccc(Cl)cc1)c1ccsc1)C1CCN(CCOc2ccccc2)CC1` (stereo not shown) [CBK147951], the “% of control remaining” value turned out to be 105.047. With `CS(=O)(=O)Nc1ccc(-c2ccc3c(c2)CCO3)c2ccccc12` [CBK083753], the “% of control remaining” value is 29.4164.

With `Cn1nc2n(c1=O)CC(C(=O)NCCN1CCCc3ccccc31)CC2` (stereo not shown) [CBK307206], the “% of control remaining” value is on record as 36.63. In the case of `COc1ccc(CC(=O)NCC(c2cccs2)N2CCOCC2)cc1F` (stereo not shown) [CBK305618], the “% of control remaining” value is 44.3309. Regarding `CN(C)c1ccc(/C=C(\C#N)c2nn(-c3ccccc3)c(N)c2C#N)cc1[N+](=O)[O-]` [CBK262532], the “% of control remaining” value amounted to 101.725. On to `CCOC(=O)CN(Cc1ccccc1)S(=O)(=O)c1ccc(C(C)C)cc1` [CBK043404], for which the “% of control remaining” value is recorded as 88.9464. Turning to `O=C1NC(=O)C2(CCN(C(=O)c3csc4c3CCCC4)CC2)N1` [CBK305601], the “% of control remaining” value is recorded as 53.0361. Consider `Cc1cccc(C)c1NC(=O)C(C)Sc1nc2ccccc2c(=O)n1CC1CCCO1` (stereo not shown) [CBK068151], for which the “% of control remaining” value came to 98.8654.

On to `COc1ccccc1N1CCN(CC(CC(=O)Nc2ccccc2)C(=O)O)CC1` (stereo not shown) [CBK286766], for which the “% of control remaining” value is given as 111.853. For `O=C(CN1CCCC1)Nc1sc2c(c1C(=O)Nc1ccccc1)CCCC2` [CBK268800], the “% of control remaining” value stood at 70.7924. For the compound `CCN1CCC(CNS(=O)(=O)c2ccc(N3CCCC3=O)cc2)CC1` [CBK305663], the “% of control remaining” value is 101.221. As for `COCCn1c(SC(C)C(=O)N2CCOCC2)nc2cc(Cl)ccc21` (stereo not shown) [CBK305580], the “% of control remaining” value is 31.6759.

Regarding `CN(C)c1cccc2c(S(=O)(=O)n3c(=O)n(Cc4ccc(S(C)(=O)=O)cc4)c4ccccc43)cccc12` [CBK106535], the “% of control remaining” value is 98.9891.

`CC1(C)CC(=O)C(C(=S)Nc2ccccc2)=C(NCc2ccccc2)C1` [CBK264498]: the “% of control remaining” value worked out at 118.023.

Regarding `Nc1cccc(-c2cncc(N(CCO)CCO)n2)c1` [CBK065808], the “% of control remaining” value is on record as 123.197. On to `Cc1nc(C2CCN(C(=O)c3ccncc3)CC2)c2sccn12` [CBK282235], for which the “% of control remaining” value is 97.0415. Then `OCCN1CC2(CCN(Cc3c(F)cccc3F)CC2)c2ccccc21` [CBK137010], with 103.589; and `OC(COCc1ccccc1)CN1CCN(c2ccccc2F)CC1` (stereo not shown) [CBK074851C], with 96.348. In the case of `Nc1ccc2ccc(-c3cccc(C(F)(F)F)c3)nc2n1` [CBK067629], the “% of control remaining” value is listed as 110.032. For `Cc1cccc(Cn2cnc(NC(=O)Nc3cccc(Cl)c3C)n2)c1` [CBK266876], the “% of control remaining” value is reported as 109.348. With `CCNc1cc(-c2ccc(N3CCOCC3)cc2)ncn1` [CBK090876], the “% of control remaining” value stood at 97.5078. For the compound `COc1ccc(C(=O)Nc2ccccc2-c2nc3ccccc3s2)cc1OC` [CBK266376], the “% of control remaining” value was determined as 139.341. As to `Clc1cncc(-c2ccccc2)n1` [CBK113371], the “% of control remaining” value amounted to 70.1342. The result for `CCS(=O)(=O)N1CCc2cc(C(=O)CSc3nnc(-c4ccco4)o3)ccc21` [CBK297126] reads 70.7307; that for `CS(=O)(=O)Nc1cccc(-c2cnc3[nH]c(=O)n(Cc4cccs4)c3n2)c1` [CBK064708], 104.123; that for `CCOc1cc(NC2CCN(C(=O)Cc3cc(C)on3)CC2)ncn1` [CBK304689], 17.4781. As for `Nc1ncc(-c2ccccc2)nc1-c1ccc(O)cc1` [CBK064030], the “% of control remaining” value is reported as 103.705.

In the case of `Cn1cc(CNC(=O)Nc2cccc(CN3CCCCC3=O)c2)cn1` [CBK305062], the “% of control remaining” value was found to be 59.4001.

For the compound `CC(C)(C)OC(=O)N1CCN(Cc2nnc(Cc3ccccc3)o2)CC1` [CBK306223], the “% of control remaining” value came to 94.8433.
